Experimental data taken from PubChem BioAssay AID1030 (National Center for Advancing Translational Sciences (NCATS), 2008).
Among all 220,000 compounds or so, about 16,000 (7.3%) were called active. Inconclusive means that the source gave no clear call. Such entries were picked first, then a sample of the others. Calls come from the whole dose curve; as a rule, active = well fitted inhibition curve with a large enough effect (not every such curve was filed as active); inconclusive = small, poorly fitted or top-dose-only effect, or another doubt; inactive = no such curve, though single readings can be large or run the other way. No potency is given beside an inconclusive call; the fits are too rough.
Potency is the fitted concentration of half-maximal effect; tags give direction and shape of the fitted curve.
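Throughout, for activity, negative = inhibition: plate controls were no enzyme wells and a reference inhibitor.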

Each compound was assayed against Aldehyde dehydrogenase 1A1 (Homo sapiens) (UniProt P00352) (assay: qHTS Assay for Inhibitors of Aldehyde Dehydrogenase 1 (ALDH1A1)). Conditions: Purified ALDH1A1, NADH fluorescence, propionaldehyde substrate; series mostly up to 75.3 µM; activity, negative = inhibition: at the top concentration.
Sequence of UniProt P00352 (P00352 whole entry, looked up): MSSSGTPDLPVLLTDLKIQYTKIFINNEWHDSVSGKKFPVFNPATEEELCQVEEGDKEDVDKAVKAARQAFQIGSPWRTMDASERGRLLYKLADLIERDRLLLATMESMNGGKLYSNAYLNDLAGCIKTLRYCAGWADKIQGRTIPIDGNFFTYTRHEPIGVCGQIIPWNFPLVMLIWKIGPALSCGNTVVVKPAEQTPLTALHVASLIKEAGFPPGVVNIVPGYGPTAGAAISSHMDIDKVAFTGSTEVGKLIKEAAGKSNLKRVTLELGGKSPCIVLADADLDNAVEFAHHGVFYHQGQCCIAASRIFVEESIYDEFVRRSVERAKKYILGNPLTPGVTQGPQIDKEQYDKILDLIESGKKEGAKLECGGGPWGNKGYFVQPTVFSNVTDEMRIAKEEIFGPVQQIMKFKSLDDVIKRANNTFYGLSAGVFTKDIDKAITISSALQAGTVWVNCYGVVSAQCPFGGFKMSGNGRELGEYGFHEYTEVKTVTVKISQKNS
`O=C(c1ccc2c(=O)n(CC3CCCO3)c(=S)[nH]c2c1)N1CCN(c2ccccc2)CC1` (stereo not given) was tested, and the Potency was inconclusive [inhibitor, partial curve].
`CCOCC(=O)Nc1ccc(S(=O)(=O)Nc2ncccn2)cc1` was tested, and the Potency was inconclusive [inhibitor, full curve, poor fit].
For `O=S(=O)(c1ccc(Cl)cc1)N1CCCC(C(F)(F)F)C1` (stereo not given), the “activity, negative = inhibition” value was inactive: -0.514%.
In the case of `COc1ccc(C2C3=C(CC(C)(C)CC3=O)Nc3c2c(=O)[nH]c2nc(C)nn32)cc1` (stereo not given), the Potency is reported as inconclusive [inhibitor, single point].
`Cn1cccc1Cc1nnc(SCC(=O)Nc2cccc(F)c2)n1CCc1ccccc1` was tested, and the Potency was inconclusive [inhibitor, single point].
With `CCOC(=O)c1ccc(NC(=O)CN(C)S(=O)(=O)c2ccc(Br)s2)cc1` the Potency was inconclusive [inhibitor, single point].
For `O=S(=O)(Nc1ccc(Cl)cc1Cl)c1cc(Cl)ccc1Cl`, the “activity, negative = inhibition” value was inactive: 2.1%.
For `COc1cc(COCC(O)CN2CCN(CCN3C(=O)c4cccc5cccc(c45)C3=O)CC2)cc(OC)c1OC` (stereo not given), the Potency was inconclusive [inhibitor, partial curve].
`O=C(N/N=C/c1ccc(-c2cccc(C(F)(F)F)c2)o1)c1cccc(F)c1` was tested, and the Potency was inconclusive [inhibitor, single point].
In the case of `COc1cccc(N2CC(=O)N(NC(=O)c3sc4nc(C)cc(C)c4c3N)CC2=O)c1`, the Potency is reported as inconclusive [inhibitor, partial curve].
With `COc1ccccc1OCCNC(=O)Cc1ccc(Cl)c(Cl)c1` the “activity, negative = inhibition” value was inactive: 6.47%.
With `Cc1ccc(CN(C)C(=O)CC2C(=O)NCCN2CC2CCCCC2)cc1` (stereo not given) the Potency was inconclusive [inhibitor, single point].
For `CCC1C(=O)c2ccccc2N(C)C1=O` (stereo not given), the Potency was inconclusive [inhibitor, partial curve].
For `Cc1ccc(-c2cnc3n2CCCCC3)cc1`, the “activity, negative = inhibition” value was inactive: 5.53%.
With `CCOc1ccc(NC(=O)CCn2c(=O)[nH]c3ccsc3c2=O)cc1` the “activity, negative = inhibition” value was inactive: -0.469%.
For `CCN(CC)c1ccc(/C=N/NS(=O)(=O)c2ccc(C)c([N+](=O)[O-])c2)cc1`, the Potency was active: 20 µM.
In the case of `C=CCc1cccc2ccc(=O)oc12`, the “activity, negative = inhibition” value is reported as inactive: 1.61%.
`CCc1cc[n+](-c2nc3ccccc3nc2[N-]S(=O)(=O)c2ccc(Br)s2)cc1` was tested, and the Potency was active: 0.946 µM.
`COc1ccccc1COCC(O)CNCC1(N2CCCCC2)CCCCC1` (stereo not given) was tested, and the Potency was inconclusive [inhibitor, single point].
For `O=C(CSCc1ccccc1Cl)N/N=C/c1ccco1`, the Potency was active: 25.1 µM.
For `CCOc1ccccc1N1Cc2ccccc2C1`, the Potency was inconclusive [inhibitor, single point].
`CCOC(=O)Cc1nnc(Nc2ccc(C)cc2C)c2ccccc12` was tested, and the “activity, negative = inhibition” value was inactive: 4.02%.
For `Cc1cccc(N2C(=O)C(CC(=O)Nc3cccc(F)c3)N(CCc3ccncc3)C2=O)c1` (stereo not given), the “activity, negative = inhibition” value was inactive: -3.98%.
`COc1ccc(C(=O)NC(=S)Nc2cccc(Cl)c2N2CCOCC2)cc1[N+](=O)[O-]` was tested, and the Potency was active: 0.398 µM.
In the case of `COc1ccc(-c2nc3ccccc3c(=O)n2CCOc2cc(C)ccc2C)cc1`, the Potency is reported as inconclusive [inhibitor, single point].
With `O=C(O)CCC(=O)Nc1ccc(C(=O)N2CCCCC2)cc1` the “activity, negative = inhibition” value was inactive: -5.94%.
In the case of `O=C(NCc1ccco1)c1sc2ccccc2c1Cl`, the Potency is reported as inconclusive [inhibitor, single point].
With `O=C(O)CNC(=O)c1ccccc1O` the activity, negative = inhibition was inactive: -10.4% [at 13.5 µM].
`COC/C=C/C1=CC2=CC(=O)C(C)(OC(=O)c3ccco3)C(=O)C2=CO1` (stereo not given) was tested, and the Potency was inconclusive [inhibitor, partial curve, poor fit].
With `CCCc1nc2c(sc3nc4c(cc32)COC(C)(C)C4)c(=O)o1` the Potency was inconclusive [inhibitor, single point].
In the case of `CN(C)c1ccc(C(CNC(=O)c2ccccc2Br)c2c[nH]c3ccccc23)cc1` (stereo not given), the Potency is reported as active: 7.94 µM.
`COc1ccc(S(=O)(=O)NNC(=O)c2sccc2-n2cccc2)cc1` was tested, and the Potency was active: 2.82 µM.
For `CN1CCN(c2ncc3nc(-c4cn(C)c5ccccc45)c(=O)n(CCC#N)c3n2)CC1`, the Potency was inconclusive [inhibitor, partial curve].
For `O=C(N/N=C/c1ccc(N2CCOCC2)cc1)c1ccc(O)cc1`, the Potency was inconclusive [inhibitor, single point].
With `O=C(O)CCSCC(=O)c1ccc2c(c1)OCCO2` the Potency was active: 15 µM.
In the case of `COc1ccc(Nc2nc(N)nc(CSc3n[nH]c(-c4ccccc4)n3)n2)cc1`, the “activity, negative = inhibition” value is reported as inactive: 2.12%.
With `COc1ccc(-n2c(=O)c(-c3ccc(F)cc3)nc3cnc(N4CCOCC4)nc32)cc1` the “activity, negative = inhibition” value was inactive: -3.17%.
For `CC(C)(C)SCCNC(=O)c1cccc([N+](=O)[O-])c1`, the Potency was inconclusive [inhibitor, single point].
For `Cc1ccc2nc(NCC(N)=O)nc(-c3ccccc3)c2c1`, the Potency was inconclusive [inhibitor, partial curve].
In the case of `Cc1cccc(N/C=C/C(=C(C#N)C#N)N(C)C)c1`, the Potency is reported as inconclusive [inhibitor, single point].
`Cn1c(=O)c2c(nc(SCCCO)n2Cc2ccccc2Cl)n(C)c1=O` was tested, and the Potency was inconclusive [inhibitor, partial curve].
For `CN1CCN(c2ccnc(-c3ccccc3C(F)(F)F)n2)CC1`, the Potency was inconclusive [inhibitor, partial curve].
In the case of `CCc1cc[n+](-c2nc([O-])sc2C=O)cc1`, the “activity, negative = inhibition” value is reported as inactive: -0.372%.
For `O=C1OCCN1C(=O)[C@H]1[C@H](c2ccccc2)C(c2cccc(Cl)c2)=NN1c1ccc(Br)cc1`, the Potency was inconclusive [inhibitor, partial curve].
With `O=C(Nc1ccc(C(=O)N2CCCC2)cc1)c1ccccc1F` the “activity, negative = inhibition” value was inactive: -7.73%.
In the case of `Cc1nc(NC(=O)CSc2cc(C)c3ccccc3n2)c(Cl)cc1Cl`, the “activity, negative = inhibition” value is reported as inactive: 1.73%.
In the case of `CO/C=C\C=C/c1nnn(-c2ccc(Cl)cc2)n1`, the Potency is reported as active: 25.1 µM.
With `Cc1ccc(OCCOCCN(C)C)c(Cl)c1` the “activity, negative = inhibition” value was inactive: -3.92%.
`CC(=O)Nc1ccc(S(=O)(=O)NC2(C(F)(F)F)C(=O)Nc3c2c(=O)[nH]c(=O)n3C)cc1` (stereo not given) was tested, and the “activity, negative = inhibition” value was inactive: 2.12%.
With `Cc1nc2nc(NCc3cccs3)nn2c(C)c1Cl` the Potency was inconclusive [inhibitor, single point].
With `CC(C)NC(=O)NC(=O)CSc1nnc(-c2ccccc2F)n1N` the “activity, negative = inhibition” value was inactive: 5.19%.
For `N#C/C(=C/c1ccc(N2CCOCC2)o1)C(=O)NC1CCCCC1`, the Potency was active: 6.31 µM.
For `CCc1nnc(N/N=C/c2ccc(-c3ccc([N+](=O)[O-])cc3)o2)n1N`, the Potency was inconclusive [inhibitor, partial curve].
In the case of `COc1ccc(-c2noc(CSc3nc(-c4ccccc4)cc(=O)[nH]3)n2)cc1OC`, the Potency is reported as inconclusive [inhibitor, partial curve].
`CSc1ccc(Cl)c(C(=O)OCC(=O)N2CC(C)OC(C)C2)c1` (stereo not given) was tested, and the Potency was inconclusive [inhibitor, single point].
With `O=C(O)c1cccc(NC(=S)N/N=C/c2ccccc2OCc2ccc(Br)cc2)c1` the Potency was inconclusive [inhibitor, single point].
With `COc1ccc(-c2csc(NC(=S)NC(=O)/C=C/c3ccco3)n2)cc1Br` the “activity, negative = inhibition” value was inactive: 5.65%.
`Cc1cc(S(=O)(=O)Nc2cc(C)c(O)c(C)c2)c(C)s1` was tested, and the “activity, negative = inhibition” value was inactive: 5.19%.
With `COc1cc(CN(C2CCCCC2C)S(=O)(=O)c2ccc(S(=O)(=O)NC3CC3)cc2)cc(OC)c1OC` (stereo not given) the “activity, negative = inhibition” value was inactive: -3.86%.
`Cc1cc2nccc(-c3ccc(Cl)c([N+](=O)[O-])c3)n2n1` was tested, and the “activity, negative = inhibition” value was inactive: -11%.
In the case of `O=C(c1c[nH]c(C(=O)C(Cl)(Cl)Cl)c1)c1ccc(F)cc1Cl`, the Potency is reported as active: 1 µM.
For `COc1ccc(/C(O)=C2/C(=O)C(=O)N(CCN(C)C)C2c2cccnc2)cc1OC` (stereo not given), the “activity, negative = inhibition” value was inactive: 1.56%.
In the case of `CCN(CC)C(=O)c1sc(N)c(C#N)c1C`, the Potency is reported as inconclusive [inhibitor, single point].
With `CN(C)c1ncc2nc(-c3ccc(F)cc3)c(=O)n(CCC#N)c2n1` the Potency was inconclusive [inhibitor, partial curve].
For `CCOCCCNc1nc2c(-c3ccccc3)nnn2c2ccccc12`, the Potency was inconclusive [inhibitor, partial curve].
For `CCOC(=O)Cn1c(=O)oc2cc(S(=O)(=O)Nc3cc(Cl)ccc3OC)ccc21`, the Potency was inconclusive [inhibitor, single point].
For `CC1(C)NC(=O)N(CCCCOc2ccc(Cl)cc2C=O)C1=O`, the Potency was inconclusive [inhibitor, single point].
In the case of `CN1CCN(c2ncncc2-c2cccnc2)CC1`, the Potency is reported as inconclusive [inhibitor, single point].
In the case of `Cn1c(N)c(C(=O)Nc2ccccc2F)sc1=S`, the Potency is reported as inconclusive [inhibitor, single point].
With `Nc1c(C(=O)NCC2CCCO2)sc2nc3c(c(-c4ccco4)c12)CC/C3=C\c1ccco1` (stereo not given) the Potency was inconclusive [inhibitor, single point].
For `CCCC(c1nnnn1C1CCCC1)N1CCN(c2ccccc2F)CC1` (stereo not given), the Potency was inconclusive [inhibitor, single point].
With `Cn1c(-c2ccc(C(C)(C)C)cc2)n[nH]c1=S` the Potency was active: 31.6 µM.
With `CCOC(=O)c1nnn(-c2nonc2N)c1-c1ccccc1` the “activity, negative = inhibition” value was inactive: -5.71%.
For `COc1ccc(CNc2ncncc2-c2cccc(C#N)c2)c(OC)c1`, the “activity, negative = inhibition” value was inactive: -15%.
In the case of `CCC(NC(=O)N(Cc1ccccc1)Cc1ccc2c(c1)OCO2)(C(F)(F)F)C(F)(F)F`, the Potency is reported as inconclusive [inhibitor, single point].
